From article PMC4336329 (PLoS ONE, 2015)
Out of some 310,000 compounds screened, about 2,200 (0.71%) showed an effect of 50% or more. The effect is printed as a negative number. The list shows a part of the results.

Biological target: human ether-à-go-go-related gene (hERG) potassium channel (human, UniProt Q12809)
Assay: primary screen, population patch clamp on CHO cells stably expressing hERG

human ether-à-go-go-related gene (hERG) potassium channel, sequence (Q12809 whole entry, looked up): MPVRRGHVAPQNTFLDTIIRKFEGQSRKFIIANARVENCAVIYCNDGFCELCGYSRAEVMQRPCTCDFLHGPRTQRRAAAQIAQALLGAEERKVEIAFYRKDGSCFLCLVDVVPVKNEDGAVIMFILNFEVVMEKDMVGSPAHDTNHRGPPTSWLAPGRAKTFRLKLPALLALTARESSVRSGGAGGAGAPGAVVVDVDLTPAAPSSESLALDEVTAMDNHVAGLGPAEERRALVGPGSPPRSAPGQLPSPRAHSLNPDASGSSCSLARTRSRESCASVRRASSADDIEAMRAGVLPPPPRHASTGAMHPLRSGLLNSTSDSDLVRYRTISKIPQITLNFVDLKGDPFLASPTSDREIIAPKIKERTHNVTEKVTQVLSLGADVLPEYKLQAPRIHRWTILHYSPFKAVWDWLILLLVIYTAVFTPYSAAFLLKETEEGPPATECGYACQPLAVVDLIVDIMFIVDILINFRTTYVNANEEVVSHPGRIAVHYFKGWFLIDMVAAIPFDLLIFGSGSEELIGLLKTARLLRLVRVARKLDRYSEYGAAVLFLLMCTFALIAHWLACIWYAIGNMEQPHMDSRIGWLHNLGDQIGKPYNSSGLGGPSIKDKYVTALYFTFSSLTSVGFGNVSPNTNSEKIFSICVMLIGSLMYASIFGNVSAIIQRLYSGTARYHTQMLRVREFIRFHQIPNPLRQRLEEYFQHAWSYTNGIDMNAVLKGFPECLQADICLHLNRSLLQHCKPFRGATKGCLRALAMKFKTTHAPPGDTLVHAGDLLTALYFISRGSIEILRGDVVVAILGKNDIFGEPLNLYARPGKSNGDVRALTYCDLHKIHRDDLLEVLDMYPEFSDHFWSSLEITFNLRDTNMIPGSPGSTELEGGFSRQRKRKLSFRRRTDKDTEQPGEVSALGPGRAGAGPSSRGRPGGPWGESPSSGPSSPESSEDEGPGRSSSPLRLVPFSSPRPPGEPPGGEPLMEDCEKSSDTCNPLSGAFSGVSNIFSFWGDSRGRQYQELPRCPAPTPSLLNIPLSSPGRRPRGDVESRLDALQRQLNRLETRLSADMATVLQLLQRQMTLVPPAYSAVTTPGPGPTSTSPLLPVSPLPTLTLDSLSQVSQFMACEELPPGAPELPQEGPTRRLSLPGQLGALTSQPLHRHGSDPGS

SMILES	hERG current change (%, negative = inhibition) at 1uM
CCCCN(C(=O)c1cccc(-n2cccc2)c1)c1c(N)n(Cc2ccccc2)c(=O)[nH]c1=O	0.161%
COc1ccc(CNC(=O)c2ccc3c(c2)N(C)CCS3)cc1	3.7%
Cc1ccc(-n2nc3c(=O)n(C(C)C(=O)NCc4ccco4)nc(C)c3c2C)cc1 (stereo not drawn)	12.8%
O=C(CN1CCN(c2ccccc2O)CC1)Nc1cc(S(=O)(=O)N2CCCC2)ccc1Cl	-7.45%
CNS(=O)(=O)c1cc(C(=O)O)ccc1OC	-5.92%
Cc1ccc(N2C(=O)N3[C@H](c4ccc(Cl)cc4)[C@@H]4C(=O)N(C5CCCCC5)C(=O)[C@@H]4[C@]3(Cc3ccccc3)C2=O)cc1	8.52%
CCCCC(=O)NC(c1ccccc1Cl)c1ccc2cccnc2c1O (stereo not drawn)	14.9%
Cc1nn(CC(=O)NCCCN2CCOCC2)c(C)c1[N+](=O)[O-]	-18.9%
CCn1c(=O)c2cc(C(=O)N(C)CC(OC)OC)sc2c2ccccc21	13%
O=C(c1cnn(C(=O)CN2CCCC2=O)c1)c1ccccc1O	6.39%
O=C(c1cc(COc2ccc(F)cc2Cl)on1)N1CCN(C2CCCCC2)C(=O)C1	-18.8%
O=c1[nH]c(=O)n(Cc2ccco2)c(O)c1/C=N/N1CCCCCC1	-4.12%
COc1ccc(CNS(=O)(=O)c2ccc(-c3cnc(C4CC4)o3)cc2)cc1	7.89%
COc1ccc(NCc2nnc(SCC(=O)Nc3ccc(OC)cc3OC)o2)cc1	-2.7%
Cn1cc(S(=O)(=O)Nc2ccc(Cl)cc2Cl)c(=O)n(C)c1=O	11.6%
CC1Cc2ccccc2N1C(=O)c1cnc2n(c1=O)CCS2 (stereo not drawn)	14.7%
Cc1cc(C(=O)OCC(=O)NC2CCS(=O)(=O)C2)c2ccccc2n1 (stereo not drawn)	3.65%
C#CCOCCOCCOCCNc1nc(N2CCN(C(=O)CCCCCCCCCCNC(=O)[C@@H](CCSC)n3cc(CCO)nn3)CC2)nc(N2CCN(C(=O)CCCCCCCCCCNC(=O)[C@H]([C@@H](C)CC)n3cc(CCCCCN)nn3)CC2)n1	14.6%
C[n+]1cc(C(=O)N2CCCCC2)ccc1/C=C/c1c[nH]c2ccccc12.[I-]	12.2%
Cc1ccc(-c2cc(C(=O)N3CCN(c4ccccc4O)CC3)c3ccccc3n2)o1	-20.5%
CCOC(=O)N1CCC(N2CC34C=CC(O3)C(C(=O)Nc3ccc(C)cc3)C4C2=O)CC1 (stereo not drawn)	10.5%
COc1ccccc1-n1cnc2cc(NCc3ccccn3)ccc21	-6.77%
CCOC(=O)N1C2C=C(C)[C@@H]2[C@@H]2CC(=O)N21 (stereo partly drawn)	10.9%
CC1CCN(C(=O)C2CCN(c3nnc(-n4cccc4)s3)CC2)CC1	12.4%
Cc1cccc(OCC(=O)NNC(=O)c2cc3ccccc3oc2=O)c1	7.04%
COc1ccccc1Oc1ccccc1[N+](=O)[O-]	10.7%
O=C(NCc1ccccn1)C1CCN(Cc2cccc(OCc3ccccc3)c2)CC1.O=C(O)C(=O)O	-1.41%

SMILES	hERG current change (%, negative = inhibition) at 1uM
C=CCn1c2ccccc2c(=O)c2cc(C#Cc3cc(OC)cc(OC)c3)ccc21	10.6%
Cc1cc(N/N=C/c2ccco2)c2ccccc2n1	10.7%
O=C(NCc1ccco1)c1cc(-c2cccc(Cl)c2)on1	9.02%
CCSc1nnc(-c2ccccc2N=Cc2c(C)[nH]n(-c3ccccc3)c2=O)c(=O)[nH]1	13.1%
O=C(CN1CCOCC1)OCCCC1CCCCC1	12.1%
CCn1c(=O)cc(SCC(=O)Nc2ccc(OC)c(OC)c2)c2ccccc21	10.1%
CC(Sc1ccccc1)C(=O)N1CCN(S(=O)(=O)c2ccccc2F)CC1 (stereo not drawn)	11.5%
Cc1nc(C)c(C(=O)OCC(=O)Nc2ccccc2)s1	2.04%
COc1ccc(-c2nnc(SCC(=O)OC3CCCCC3)o2)cc1OC	13.5%
Cc1cccc(NC(=O)C[n+]2cccc(C)c2)c1.[Cl-]	1.4%
Nc1nnc(SCC(=O)NNC(=O)c2ccc(F)cc2)s1	3.01%
CCCCNC(=O)CCn1nc(-c2ccccc2)ccc1=O	-13.9%
Cc1ccc(C)c(CN2CCSCC2)c1	12%
O=C1C=C2C=C[C@H]3C[C@]2(O1)[C@@H]1CCCCN13	16.3%
CCCCc1nc(SCC(=O)Nc2cc(C)on2)n[nH]1	11.8%
CN1CCc2cc3c(c4c2C1CC41CCC(=NO)CC1)OCO3 (stereo not drawn)	4.82%
CCOc1ccc(N(C(=O)Nc2ccccc2)C2=NCCC2)cc1	8.32%
CCN(CC)S(=O)(=O)c1cccc(NN=c2c(=O)c3ccccc3c2=O)c1	11.5%
CCOc1ccc(CCNC(=O)c2nccnc2C(=O)O)cc1OCC	17.1%
CC(=O)c1ccc(NC(=O)CCOc2cc(C)ccc2C)cc1	-0.606%
Cc1ccc(S(=O)(=O)N2CCN(S(=O)(=O)N(C)C)CC2)cc1	7.16%
Cc1cccc(NC(=O)COc2ccccc2C(=O)NC(C)c2ccccc2)c1 (stereo not drawn)	15.8%
COc1cc([N+](=O)[O-])cc(/C=N/NC(=O)c2cc(-c3ccccc3)nc3ccccc23)c1O	8.9%
COc1ccc(-c2nc(SC(CC(=O)NCc3ccccc3)c3ccc(OC)c(OC)c3)n[nH]2)cc1 (stereo not drawn)	11.3%
COCc1c(C(=O)N2CCN(c3ncccn3)CC2)oc2ccccc12	15.7%
O=C(CCCn1c(=O)[nH]c2cc(Cl)ccc2c1=O)NCCC1=CCCCC1	13.3%
COc1ccc2cnn(CCOc3ccccc3)c(=O)c2c1OC	-0.693%
